Source: PubChem BioAssay AID504832 (National Center for Advancing Translational Sciences (NCATS), 2011)
Screen size: about 310,000 compounds; about 18,000 (5.8%) were called active. Inconclusive results, whose numbers are uncertain, are shown with a selection of clear calls. The call rests on the fitted dose curve; in most records, active means well fitted inhibition curve with a large enough effect; inconclusive means small, poorly fitted or top-dose-only effect, or another doubt; inactive means no such curve, though single readings can be large or run the other way. No potency is given beside an inconclusive call; the fits are too rough. Starred links: 1 amine or outer side, 2 acyl side, 3 side chain; linkers in the order of their positions; H or OH if unused. Positions of bridges follow the written chain, without caps; N, C: chain ends. Non-standard residues stand in square brackets, D forms with d. Residues, ends and D or L forms follow the SMILES beside them. Chains are numbered I, II in the order given. Actinocin(9to1) = Cc1c2oc3c(C)ccc(C(=O)[*:1])c3nc-2c(C(=O)[*:2])c(N)c1=O; NMeV = CN[C@H](C(=O)O)C(C)C; Sar = CNCC(=O)O

assay: Primary qHTS for delayed death inhibitors of the malarial parasite plastid, 48 hour incubation; settings: P. falciparum luciferase growth in erythrocytes; series mostly up to 28.7 µM
Summary of the method: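 In quantitative HTS format, infected erythrocytes bearing luciferase-reporter parasites were treated for a single generation at 37 C. Luminescence after adding detection reagent served as the growth measure.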
Potency means the concentration at half of the fitted maximal effect; tags describe the fitted curve by direction and shape.

Structure (SMILES) | Potency
CCOCCCNS(=O)(=O)c1ccc(NC(=O)c2ccccc2)cc1 | inconclusive [inhibitor, single point]
O=C(CN1C(=O)S/C(=C\c2ccccc2)C1=O)NC1CCS(=O)(=O)C1 (stereo not given) | inactive
CCN(CC)S(=O)(=O)c1ccc(C(=O)NCCCn2ccnc2)cc1 | inconclusive [inhibitor, full curve, poor fit]
O=C(CN1CCN(c2ccccc2F)CC1)NCc1ccccc1 | inactive
Cn1c(=O)c2c(nc(NCCNC(=O)c3ccco3)n2Cc2ccc(F)cc2)n(C)c1=O | inconclusive [inhibitor, single point]
COc1ccc(N2C(=O)c3ccccc3C(C)(C)C2=O)cc1 | inactive
CCn1c(CNC(=O)c2cc(OC)c(OC)c(OC)c2)cc2cc(C)ccc21 | inconclusive [inhibitor, partial curve]
Cc1cc(C)n(-c2nc(SCCN(C)C)c3c4c(sc3n2)CCCC4)n1 | inconclusive [inhibitor, full curve]
COC(=O)Cn1c(=O)c2c(nc3n2CC(C)CN3Cc2ccccc2)n(C)c1=O (stereo not given) | inconclusive [inhibitor, partial curve, poor fit]
CCC(=O)c1cc(F)ccc1OCC(=O)Nc1ccc2c(c1)OCCO2 | inconclusive [inhibitor, single point]
CC(C)c1ccc(S(=O)(=O)N2CCN(C(=O)c3cc(-c4ccccc4)n[nH]3)CC2)cc1 | inconclusive [inhibitor, full curve]
O=C(COC(=O)c1ccc(Cl)cc1[N+](=O)[O-])NNC(=O)c1cccs1 | inconclusive [inhibitor, partial curve]
CN=C(c1ccco1)n1c(=S)nc(-c2ccco2)n(C)c1=S | inactive
COc1ccccc1Nc1nc(NCCC(C)C)nc(N)c1[N+](=O)[O-] | active: 3.7 µM
CC(=O)N1CCN(S(=O)(=O)c2cccc(C(=O)NCCc3ccc(Cl)cc3)c2)CC1 | inconclusive [inhibitor, single point]
CSc1nc(C)c(C(=O)C[n+]2ccccc2C)cc1C#N | active: 14.7 µM
Cn1c(=O)n(C)c2cc(N3CCCCC3)c(NC(=O)c3cccc(Cl)c3)cc21 | active: 10.4 µM
COC(=O)C1CCN(C(=O)COC(=O)c2ccc(=O)n(Cc3ccccc3)n2)CC1 | inactive
CCOC(=O)c1sc(Nc2ccc(OCC)cc2)nc1C | inactive
COc1ccc(N2CCN(C(=O)CCC(=O)N3Cc4ccccc4Oc4ncccc43)CC2)cc1 | inconclusive [inhibitor, partial curve]
COc1ccc2nc(NC(=O)C3CCCN(S(=O)(=O)c4cccc5nsnc45)C3)sc2c1 (stereo not given) | inconclusive [inhibitor, partial curve]
COc1ccc(O)c(C(=O)c2coc(=N)c(C(=O)Nc3ccc(SC(F)F)cc3)c2)c1 | inconclusive [inhibitor, partial curve]
O=C(Nc1ccccc1C(=O)NCCCN1CCOCC1)c1cccc([N+](=O)[O-])c1 | inactive
CN1CCN(S(=O)(=O)c2cccc(C(=O)Nc3ccccc3N3CCCCC3)c2)CC1 | inconclusive [inhibitor, single point]

Structure (SMILES) | Potency
Cc1ccc(CC(=O)NCC(c2ccco2)N(C)C)cc1C (stereo not given) | inconclusive [inhibitor, single point]
Cc1ccc(CNC(=O)c2ccccc2N)cc1 | inactive
COc1ccc(C2CN=NC23CCc2ccccc2C3=O)cc1 (stereo not given) | active: 13.1 µM
O=C(CSCc1ccc(Cl)cc1)N/N=C/c1ccco1 | inactive
O=C(NCCNc1ccc([N+](=O)[O-])cc1C(F)(F)F)c1cccc(F)c1 | inconclusive [inhibitor, single point]
COc1ccc2ccc(OCC(=O)NCC3CCCO3)cc2c1 (stereo not given) | inactive
CCOc1ccc(NS(=O)(=O)c2cc(C(=O)N3CCN(c4ccccc4O)CC3)ccc2Cl)cc1 | inconclusive [inhibitor, single point]
CCN(CC)c1ccc(C(=O)NNC(=O)C2CSC3(C)CCC(=O)N23)cc1 (stereo not given) | inconclusive [inhibitor, single point]
Cn1c(=O)cc(Nc2ccccc2)c2c(=O)n(-c3ccccc3)c(=O)n(-c3ccccc3)c21 | active: 6.57 µM
COc1cc(O)c(CCO)c2c1C(=O)C[C@@H](C)O2 | inactive
Cc1c(C(=O)NCc2ccccc2CN2CCCC2)oc2ccc(F)cc12 | inconclusive [inhibitor, single point]
O=C1CSC(c2cccc([N+](=O)[O-])c2)N1c1ccccc1 (stereo not given) | inconclusive [inhibitor, partial curve, poor fit]
Cc1c2oc3c(C)ccc(C(=O)N[C@@H]4C(=O)N[C@H](C(C)C)C(=O)N5CCC[C@H]5C(=O)N(C)CC(=O)N(C)[C@@H](C(C)C)C(=O)O[C@@H]4C)c3nc-2c(C(=O)N[C@@H]2C(=O)N[C@H](C(C)C)C(=O)N3CCC[C@H]3C(=O)N(C)CC(=O)N(C)[C@@H](C(C)C)C(=O)O[C@@H]2C)c(N)c1=O (I: T[dV]P[Sar][NMeV] / II: T[dV]P[Sar][NMeV]; ester I:1-I:C, II:1-II:C; linker I:N-II:N via Actinocin(9to1)) | active: 0.0048 µM
Cc1ccc2c(c1C)NC(C)CC2C (stereo not given) | active: 13.1 µM
COc1ccc(CC(=O)NC(c2ccccc2)c2ccccc2)cc1S(=O)(=O)N1CCOCC1 | inconclusive [inhibitor, partial curve]
CC(=O)OC(C(=O)NCc1ccc(F)cc1)c1ccccn1 (stereo not given) | inconclusive [inhibitor, full curve, poor fit]
C=CCn1c(SCc2ccc(C#N)cc2)nnc1-c1cccc(Cl)c1 | inconclusive [inhibitor, partial curve]
CCOC(=O)N1CCN(C(=O)/C(=C\c2cccs2)NC(=O)c2cccs2)CC1 | inconclusive [inhibitor, single point]
CCCCn1c(N)c(N(CC(C)C)C(=O)c2cc3c(s2)CCCCC3)c(=O)[nH]c1=O | inactive
Cc1ccc(C(=O)Nc2ccccc2N2CCCC2)s1 | inconclusive [inhibitor, single point]
Cc1ccc(-c2ccc(CCC(=O)O)n2CC2CCCO2)cc1 (stereo not given) | inactive
CCN(CC(=O)NC1CCCC1)S(=O)(=O)c1ccc(F)cc1 | inconclusive [inhibitor, partial curve, poor fit]
CC(C)CNC(=O)COC(=O)c1c2c(nc3ccccc13)/C(=C/c1cccs1)CC2 | inconclusive [inhibitor, single point]
CCn1nc(C)c(NC(=O)c2ccc(Br)o2)c1C | inactive

Structure (SMILES) | Potency
CCN(CC(=O)Nc1cccc(F)c1)CC(=O)Nc1ccccc1OC | inactive
Cc1ccc(Nc2c([N+](=O)[O-])c(=O)n(C)c3ccccc23)cc1C | inconclusive [inhibitor, single point]
COc1cccc(-c2nc(-c3ccccc3)c(-c3ccccc3)[nH]2)c1OCC(=O)O | inconclusive [inhibitor, single point]
CC(C)C(=O)Nc1cccc(NC(=S)NC(=O)c2cccs2)c1 | inactive
O=C(NNC(=S)NC(=O)c1cccc([N+](=O)[O-])c1)c1ccc(Br)cc1 | inactive
O=C(Nc1ccc(Cl)c(Cl)c1)Nc1ccc([N+](=O)[O-])cn1 | active: 9.28 µM
CC1(C)CC(=O)C=C(c2ccc(F)nc2)C1 | inactive
O=C(NC1CCCCCC1)C1CCN(S(=O)(=O)c2ccc(F)cc2)CC1 | inconclusive [inhibitor, single point]
Cc1ccc(S(=O)(=O)N2CCC(C(=O)NC3CC(C)(C)NC(C)(C)C3)CC2)cc1 | inactive
NC(=O)NCCc1ccccc1 | inactive
CC(C)(C)n1nnnc1C(c1cccs1)N(Cc1cccnc1)Cc1ccco1 (stereo not given) | active: 10.4 µM
COc1cc(OC)cc(C(=O)O/N=C(\N)c2ccccn2)c1 | inconclusive [inhibitor, single point]
O=C(NC1CCCC1)C1CCN(C(=O)NCc2ccccc2)CC1 | inactive
CCc1ccccc1Nc1nc(N)nc(CSCC(=O)c2cc(C)n(C)c2C)n1 | inconclusive [inhibitor, single point]
COc1ccccc1C(=O)N1c2ccccc2Sc2ccccc21 | inactive
O=C(Nc1ccccc1C(=O)N/N=C/c1ccco1)c1ccc(F)cc1 | inactive
CCCn1c(-c2cccc([N+](=O)[O-])c2)nc2c1c(=O)[nH]c(=O)n2Cc1ccccc1 | inconclusive [inhibitor, partial curve, poor fit]
COc1ccc(OC)c(CN2CCN(C(=O)CNC(=O)c3ccc(C(C)(C)C)cc3)CC2)c1 | inconclusive [inhibitor, partial curve, poor fit]
CCCCOC(=O)C1=C(C)NC(=O)NC1c1ccc([N+](=O)[O-])s1 (stereo not given) | inactive
COCCn1c(SCC(=O)N2CCCCC2)nc2ccccc2c1=O | inconclusive [inhibitor, partial curve, poor fit]
O=C1Nc2cc(C(=O)NCCCN3CCOCC3)ccc2S/C1=C/c1ccccc1F | inconclusive [inhibitor, single point]
c1ccc2c(c1)N1CCCN=C1N2CCN1CCCCC1 | inconclusive [inhibitor, partial curve, poor fit]
